{"source": "paper PMC4336329", "about": "(PLoS ONE, 2015)", "note": "Screen size: about 310,000 compounds; about 14,000 (4.5%) showed an effect of 50% or more. The effect is printed as a negative number. Some of the results follow.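 Further: peak tail current of the secondary pulse compared with the same well before compound.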"}
{"target": "human ether-à-go-go-related gene (hERG) potassium channel (human, UniProt Q12809)", "sequence (Q12809 whole entry, looked up)": "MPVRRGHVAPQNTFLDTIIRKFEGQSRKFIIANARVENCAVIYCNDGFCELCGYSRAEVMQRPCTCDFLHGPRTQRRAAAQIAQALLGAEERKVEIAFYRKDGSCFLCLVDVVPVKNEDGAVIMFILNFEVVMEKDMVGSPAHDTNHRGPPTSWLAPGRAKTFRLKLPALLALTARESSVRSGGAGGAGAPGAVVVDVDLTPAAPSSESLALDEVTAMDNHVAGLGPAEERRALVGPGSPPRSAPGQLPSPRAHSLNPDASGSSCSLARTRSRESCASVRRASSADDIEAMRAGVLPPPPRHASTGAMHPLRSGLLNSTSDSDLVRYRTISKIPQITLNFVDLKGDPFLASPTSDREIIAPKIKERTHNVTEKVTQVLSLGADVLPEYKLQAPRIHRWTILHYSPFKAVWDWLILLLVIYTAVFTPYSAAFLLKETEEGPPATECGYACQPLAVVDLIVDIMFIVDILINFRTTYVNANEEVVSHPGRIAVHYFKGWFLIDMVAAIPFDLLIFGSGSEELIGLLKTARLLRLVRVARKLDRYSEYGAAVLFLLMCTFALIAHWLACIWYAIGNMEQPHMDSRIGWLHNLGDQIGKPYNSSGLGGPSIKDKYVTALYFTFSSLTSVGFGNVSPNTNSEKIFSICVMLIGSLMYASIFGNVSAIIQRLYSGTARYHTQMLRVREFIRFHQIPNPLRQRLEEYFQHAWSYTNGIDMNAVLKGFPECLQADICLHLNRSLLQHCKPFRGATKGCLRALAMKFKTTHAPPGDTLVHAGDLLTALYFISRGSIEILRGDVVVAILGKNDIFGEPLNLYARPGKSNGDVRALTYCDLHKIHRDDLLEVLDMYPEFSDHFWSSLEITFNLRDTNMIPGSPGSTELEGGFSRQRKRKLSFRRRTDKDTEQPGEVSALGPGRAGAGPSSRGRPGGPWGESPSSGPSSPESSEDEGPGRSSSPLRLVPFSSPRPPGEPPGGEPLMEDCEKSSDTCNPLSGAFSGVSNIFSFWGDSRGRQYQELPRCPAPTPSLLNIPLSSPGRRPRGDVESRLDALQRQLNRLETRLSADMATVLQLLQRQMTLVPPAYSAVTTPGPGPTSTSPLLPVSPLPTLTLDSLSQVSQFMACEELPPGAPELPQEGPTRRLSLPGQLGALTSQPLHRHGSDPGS", "test": "primary screen, population patch clamp on CHO cells stably expressing hERG", "units": {"hERG current change (%, negative = inhibition) at 10uM": "%"}}
{"molecule": "CN(C)CCNC(=S)NC1CCCCC1", "hERG current change (%, negative = inhibition) at 10uM": 19.7}
{"molecule": "COc1ccc(/C=N/OCC(=O)Nc2nc3ccccc3s2)cc1OC", "hERG current change (%, negative = inhibition) at 10uM": 11.4}
{"molecule": "CC1(c2ccccc2Cl)NC(=O)N(CC(=O)Nc2ccc(N3CCCCC3)cc2)C1=O", "note": "(stereo not drawn)", "hERG current change (%, negative = inhibition) at 10uM": -21.9}
{"molecule": "O=C(COC(=O)[C@@H]1CCCN1S(=O)(=O)c1ccc(Cl)cc1)NC1CC1", "hERG current change (%, negative = inhibition) at 10uM": -4.21}
{"molecule": "O=C(O)CSc1nnc(-c2cc3ccccc3o2)n1-c1ccccc1", "hERG current change (%, negative = inhibition) at 10uM": 7.76}
{"molecule": "CC(CC(=O)N1CCN(c2cccc(Cl)c2)CC1)S(=O)(=O)c1ccc2c(c1)NC(=O)CO2", "note": "(stereo not drawn)", "hERG current change (%, negative = inhibition) at 10uM": -22.8}
{"molecule": "COc1ccc2c(c1OC)C(=O)OC2n1c(O)c(N=NC(C)=O)c2ccccc21", "note": "(stereo not drawn)", "hERG current change (%, negative = inhibition) at 10uM": 13.5}
{"molecule": "CC1Cc2cc(/C(O)=C3/C(=O)C(=O)N(Cc4ccco4)C3c3cccs3)ccc2O1", "note": "(stereo not drawn)", "hERG current change (%, negative = inhibition) at 10uM": -1.15}
{"molecule": "COCCCNC(=O)c1c(N)n(Cc2ccco2)c2nc3ccccc3nc12", "hERG current change (%, negative = inhibition) at 10uM": -2.08}
{"molecule": "CCOc1ccc(-c2noc(CCC(=O)NC)n2)cc1OCC", "hERG current change (%, negative = inhibition) at 10uM": 2.22}
{"molecule": "Cc1ccccc1NC(=S)c1nc2ccccc2[nH]1", "hERG current change (%, negative = inhibition) at 10uM": 16.3}
{"molecule": "O=C(CSc1ccccn1)Nc1ccc(N2CCOCC2)cc1", "hERG current change (%, negative = inhibition) at 10uM": 3.15}
{"molecule": "CC(=O)Nn1c(C)nnc1-n1nc(C)cc1C", "hERG current change (%, negative = inhibition) at 10uM": 14.6}
{"molecule": "NC(=O)c1ccc(N=Nc2c(O)c3ccccc3[nH]c2=O)cc1", "hERG current change (%, negative = inhibition) at 10uM": 10.4}
{"molecule": "COc1cccc(/C=N/NC(=S)NCCc2ccccc2)c1OC", "hERG current change (%, negative = inhibition) at 10uM": 16.7}
{"molecule": "Cc1cc([N+](=O)[O-])cnc1NC(C)c1ccccc1", "note": "(stereo not drawn)", "hERG current change (%, negative = inhibition) at 10uM": -1.33}
{"molecule": "CCC(C)NC(=O)c1nn(Cc2ccccc2)c(=O)c2ccccc12", "note": "(stereo not drawn)", "hERG current change (%, negative = inhibition) at 10uM": 11.9}
{"molecule": "CCOC(=O)c1cc(CC)sc1NC(=O)CSc1nc2ccccc2c(=O)n1Cc1ccco1", "hERG current change (%, negative = inhibition) at 10uM": -3.35}
{"molecule": "Cc1cccc(NC(=O)CN(C)S(=O)(=O)c2cccc3cccnc23)c1C", "hERG current change (%, negative = inhibition) at 10uM": -5.69}
{"molecule": "O=C(O)C1CCCN1c1nc(-c2ccc(Cl)c(Cl)c2)cc(C(F)(F)F)n1", "note": "(stereo not drawn)", "hERG current change (%, negative = inhibition) at 10uM": -3.5}
{"molecule": "CN(Cc1ccccn1)C(=O)CC1C(=O)NCCN1Cc1ccc(F)cc1Cl", "note": "(stereo not drawn)", "hERG current change (%, negative = inhibition) at 10uM": 16.4}
{"molecule": "O=[N+]([O-])c1cccc(C(=Nc2ccccc2)NO)c1", "hERG current change (%, negative = inhibition) at 10uM": 3.51}
{"molecule": "CCOC(=O)c1ccc(NC(=O)c2cccc(S(=O)(=O)N3CCN(C(C)=O)CC3)c2)cc1", "hERG current change (%, negative = inhibition) at 10uM": -15.3}
{"molecule": "CN(c1ccccc1)S(=O)(=O)c1ccc(Cl)c(C(=O)OCC(=O)N2CCOCC2)c1", "hERG current change (%, negative = inhibition) at 10uM": -28.5}
